Consider two molecules from paper PMC6720716.

The chains behind the UniProt entries cited, without tags or fusion partners. Residues count along the entry.
UniProt Q01097, residues 27-1482: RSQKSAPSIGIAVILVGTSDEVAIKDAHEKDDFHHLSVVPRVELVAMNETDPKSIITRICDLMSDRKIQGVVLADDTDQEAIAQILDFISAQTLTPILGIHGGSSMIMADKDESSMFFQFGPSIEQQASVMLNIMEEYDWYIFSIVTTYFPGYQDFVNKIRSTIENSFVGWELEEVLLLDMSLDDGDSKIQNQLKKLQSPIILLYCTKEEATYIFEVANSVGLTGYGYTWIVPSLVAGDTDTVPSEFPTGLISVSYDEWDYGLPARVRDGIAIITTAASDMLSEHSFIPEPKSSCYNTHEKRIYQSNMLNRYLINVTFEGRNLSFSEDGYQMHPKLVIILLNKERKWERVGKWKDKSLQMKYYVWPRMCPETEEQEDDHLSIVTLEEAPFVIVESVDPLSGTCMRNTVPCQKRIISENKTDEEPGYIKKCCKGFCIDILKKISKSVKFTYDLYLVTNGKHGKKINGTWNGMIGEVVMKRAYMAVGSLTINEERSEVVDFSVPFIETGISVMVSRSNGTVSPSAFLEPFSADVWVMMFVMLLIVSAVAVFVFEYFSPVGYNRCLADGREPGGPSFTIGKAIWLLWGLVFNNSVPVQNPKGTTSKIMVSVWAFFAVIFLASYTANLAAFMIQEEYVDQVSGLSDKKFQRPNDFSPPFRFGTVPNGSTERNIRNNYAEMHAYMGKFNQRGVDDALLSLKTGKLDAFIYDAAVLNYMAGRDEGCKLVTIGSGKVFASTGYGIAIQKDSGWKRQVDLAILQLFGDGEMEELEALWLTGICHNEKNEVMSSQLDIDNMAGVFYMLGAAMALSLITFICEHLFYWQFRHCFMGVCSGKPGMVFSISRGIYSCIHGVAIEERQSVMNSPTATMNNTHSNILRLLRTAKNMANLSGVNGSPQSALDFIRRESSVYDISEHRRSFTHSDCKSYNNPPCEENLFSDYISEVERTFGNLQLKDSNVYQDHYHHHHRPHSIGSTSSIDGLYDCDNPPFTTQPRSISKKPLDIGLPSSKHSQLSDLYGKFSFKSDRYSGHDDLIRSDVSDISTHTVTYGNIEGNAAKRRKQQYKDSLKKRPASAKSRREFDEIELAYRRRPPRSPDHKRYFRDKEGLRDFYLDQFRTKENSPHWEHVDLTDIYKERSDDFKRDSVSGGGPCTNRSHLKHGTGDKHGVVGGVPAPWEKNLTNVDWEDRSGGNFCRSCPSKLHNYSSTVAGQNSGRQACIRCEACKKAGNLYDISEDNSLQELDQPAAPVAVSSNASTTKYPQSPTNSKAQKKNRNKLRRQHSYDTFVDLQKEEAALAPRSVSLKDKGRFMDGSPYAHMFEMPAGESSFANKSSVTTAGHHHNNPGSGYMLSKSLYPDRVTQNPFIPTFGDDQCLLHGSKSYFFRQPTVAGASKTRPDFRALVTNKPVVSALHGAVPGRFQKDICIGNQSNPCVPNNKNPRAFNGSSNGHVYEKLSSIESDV
UniProt P98156, residues 28-873: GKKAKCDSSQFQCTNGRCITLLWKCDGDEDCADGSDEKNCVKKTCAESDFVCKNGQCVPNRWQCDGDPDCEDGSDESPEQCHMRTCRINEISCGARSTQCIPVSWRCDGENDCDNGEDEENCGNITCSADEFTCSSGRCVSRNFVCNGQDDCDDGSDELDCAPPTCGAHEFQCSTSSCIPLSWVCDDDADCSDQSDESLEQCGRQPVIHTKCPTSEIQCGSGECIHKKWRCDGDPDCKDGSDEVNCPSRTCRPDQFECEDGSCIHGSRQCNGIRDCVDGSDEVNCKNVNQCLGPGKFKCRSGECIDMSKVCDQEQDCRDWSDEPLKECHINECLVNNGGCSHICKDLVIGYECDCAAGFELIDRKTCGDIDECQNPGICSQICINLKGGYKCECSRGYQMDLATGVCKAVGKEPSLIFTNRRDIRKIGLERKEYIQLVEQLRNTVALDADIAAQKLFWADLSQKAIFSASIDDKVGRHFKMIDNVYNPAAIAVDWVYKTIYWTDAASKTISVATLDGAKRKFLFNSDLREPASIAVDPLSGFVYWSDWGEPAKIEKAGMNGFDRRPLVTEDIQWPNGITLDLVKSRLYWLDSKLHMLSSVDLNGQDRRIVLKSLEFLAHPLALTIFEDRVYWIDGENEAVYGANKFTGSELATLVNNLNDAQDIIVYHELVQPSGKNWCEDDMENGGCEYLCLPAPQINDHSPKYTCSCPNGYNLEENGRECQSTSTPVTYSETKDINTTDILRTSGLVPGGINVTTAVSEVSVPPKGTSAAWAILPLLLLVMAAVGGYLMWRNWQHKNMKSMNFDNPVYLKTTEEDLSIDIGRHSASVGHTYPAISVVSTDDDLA
UniProt Q924X6, residues 29-996: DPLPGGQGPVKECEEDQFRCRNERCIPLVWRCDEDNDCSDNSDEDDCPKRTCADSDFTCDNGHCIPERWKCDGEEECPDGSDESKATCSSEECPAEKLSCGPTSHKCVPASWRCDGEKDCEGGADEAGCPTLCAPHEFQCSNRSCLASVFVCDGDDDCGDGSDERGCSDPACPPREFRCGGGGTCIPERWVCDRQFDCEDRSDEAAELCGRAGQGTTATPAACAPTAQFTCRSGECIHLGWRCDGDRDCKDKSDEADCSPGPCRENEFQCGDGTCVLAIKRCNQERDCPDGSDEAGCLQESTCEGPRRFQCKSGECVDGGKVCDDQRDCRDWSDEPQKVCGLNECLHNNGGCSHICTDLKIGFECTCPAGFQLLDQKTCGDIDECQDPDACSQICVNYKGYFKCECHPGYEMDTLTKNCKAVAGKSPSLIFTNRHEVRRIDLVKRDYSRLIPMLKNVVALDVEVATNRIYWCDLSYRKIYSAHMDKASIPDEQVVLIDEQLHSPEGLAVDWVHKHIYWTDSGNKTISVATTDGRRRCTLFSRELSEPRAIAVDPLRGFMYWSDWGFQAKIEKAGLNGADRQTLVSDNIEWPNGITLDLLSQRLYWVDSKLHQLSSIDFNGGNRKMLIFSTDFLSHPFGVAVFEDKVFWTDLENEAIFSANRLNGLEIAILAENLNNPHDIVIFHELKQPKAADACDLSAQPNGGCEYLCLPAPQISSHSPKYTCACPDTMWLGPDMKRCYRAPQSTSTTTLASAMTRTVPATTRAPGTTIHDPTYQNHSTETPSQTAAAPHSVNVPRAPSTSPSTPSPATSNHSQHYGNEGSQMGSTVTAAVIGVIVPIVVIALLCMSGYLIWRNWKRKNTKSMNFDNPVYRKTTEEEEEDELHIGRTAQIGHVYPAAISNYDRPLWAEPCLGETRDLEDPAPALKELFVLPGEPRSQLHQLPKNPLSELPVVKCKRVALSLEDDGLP

Test in all cases: co-IP; mouse cortical tissue extract, 1 ug/ul; 10 ug antibody in 200 ul overnight at 4°C, protein A-sepharose beads 2 hr at 4°C; rinsed three times with binding buffer and once with binding buffer containing 500 mM NaCl; Western blot
In general terms: In western blotting, separated proteins are transferred to a membrane and probed.

Experiment [1] deals with T1, SIL1 (mouse (endogenous in mouse cortical tissue)) (UniProt Q9EPK6).
T1 sequence: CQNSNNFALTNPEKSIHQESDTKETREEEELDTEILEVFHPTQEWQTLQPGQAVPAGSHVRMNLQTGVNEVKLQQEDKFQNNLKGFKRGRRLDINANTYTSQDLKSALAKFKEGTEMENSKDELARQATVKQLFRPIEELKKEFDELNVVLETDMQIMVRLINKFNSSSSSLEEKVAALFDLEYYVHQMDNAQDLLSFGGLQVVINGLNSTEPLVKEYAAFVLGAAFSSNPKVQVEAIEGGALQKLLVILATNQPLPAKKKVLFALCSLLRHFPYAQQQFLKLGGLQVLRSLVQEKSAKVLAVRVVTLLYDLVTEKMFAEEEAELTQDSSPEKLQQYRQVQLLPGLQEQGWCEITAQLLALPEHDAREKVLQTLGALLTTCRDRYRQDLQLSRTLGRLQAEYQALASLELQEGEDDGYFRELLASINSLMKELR

Experiment [2] has as its target GluN2A (mouse (endogenous in mouse cortical tissue)) (UniProt P35436).
Experiment [3] has as its target GluN2B (mouse (endogenous in mouse cortical tissue)) (UniProt Q01097).
Experiment [4] concerns the target VLDLR (mouse (endogenous in mouse cortical tissue)) (UniProt P98156).
Experiment [5] deals with ApoER2 (mouse (endogenous in mouse cortical tissue)) (UniProt Q924X6).

Results are given in words; binding and its absence hold for the method and conditions named. Binding seen in cells or lysates may run through a third protein. Some results given as binding are weak or reduced against the parent protein; the word gives no strength.

Regarding “GluN2A (from UniProt P35436 23-1464) (receptor)”, the binding entry in experiment [1] is reported as “binds”.

B1: SIL1 (protein, UniProt Q9EPK6 32-465)
chain: T1 sequence
Turning to B1, the binding result is “binds” in experiment [2], “no binding” in experiment [3], “binds” in experiment [4] and “binds” in experiment [5].
